Assay results reported in patent US20260250325A1, “Antiviral Polypeptide Membrane Fusion Inhibitor, and Preparation Method and Application Thereof” (priority 2025, published 2026).
Not every detail of the peptide structures is certain; ends, links or a residue may be inferred. Where a SMILES comes first, the peptide text is derived from it. The star is where a group is joined. X1 = CC(C)CCCC(C)C1CCC2C3CC=C4CC(OC(=O)CCC(=O)*)CCC4(C)C3CCC12C

Assays:
RSV A2 virus strain [1] = assay: Cotton rat RSV A2 challenge protection, lung nucleic acid load by RT-qPCR; assay type: in vivo; settings: cotton rats; for Nucleic acid load RT-qPCR detection results Log10 mean (copy number/gram of lung tissue): tracheal nebulization 1 mg/kg QD for 5 days, lung collected 2 h after final administration on Day 4; for effect on viral titer in lung tissue (in words): tracheal nebulization once daily for 5 days
Source text: Female cotton rats were from Shanghai Yishang Biotechnology Co., Ltd. The RSV A2 virus strain was from the ATCC, with a catalog number VR-1540. RT-qPCR primer+probe primer were supplied by Qingke Biotechnology Co., Ltd, with batch number TSP20241227-025-00187. The RT-qPCR standard was provided by Vazyme, with batch number 20241008.
Female cotton rats (6-8 weeks old) were grouped based on body weight (n=5). All animals were intranasally challenged with RSV on Day 0 at a challenge dosage of […] pfu (50 μL) per animal. Administration began 1 h after Day 0 challenge; the polypeptide sample, positive control, and solvent control were administered via tracheal nebulization once daily for 5 consecutive days. Lung tissue was collected from all animals 2 h after the final administration on Day 4. Left lung tissue (including partial trachea) was rapidly frozen in a virus protection solution with a 10-fold volume and stored below −70° C.; and the viral titer was detected with RT-qPCR.
First, sample homogenization and lung tissue RNA extraction were performed, and the supernatant was taken from the tissue sample that was homogenized using a tissue homogenizer (maintaining a low-temperature environment). The approximately 100 μL of the homogenate supernatant was taken, and total tissue RNA was extracted by using a VeZol reagent-chloroform-water phase-magnetic bead method, and dissolved in RNase-free water. The RT-qPCR reaction system was prepared as follows: a one-step RT-qPCR reaction system was prepared by using an RNA template, a probe, a primer pair, an RT-qPCR buffer, and the RNase-free water; each sample was tested in duplicated wells, with each well containing 20 μL of the one-step RT-qPCR reaction system; a quantitative standard curve well (RSV A2 N gene full-length plasmid), a positive quality control well, and a negative quality control well were arranged at the same time. Then, amplification programs were set according to reverse transcription, pre-denaturation, and cyclic amplification, and amplification data was collected by using a real-time fluorescence quantification PCR instrument, and a mean CT value for duplicated wells was calculated. The CT value from the test results for each sample was substituted into a quantitative standard curve to calculate a copy number. A calculation formula for RSV viral load (copy number/gram of lung tissue) was: sample viral load (copy number/gram of lung tissue)=copy number/relative tissue input (g).
(§1) One hour after RSV A2 challenge in cotton rats, compounds 13, 14, 17, 19, 20, 21, 26, 27, 28, and 40 were administered via tracheal nebulization once daily for 5 consecutive days; and 2 h after the final administration, lung tissue was collected from all groups for viral titer detection, and results were shown in Table 4.

RSV A2 virus strain [2] = assay: Mouse RSV A2 challenge protection, lung viral titer by plaque method; assay type: in vivo, BALB/c mice; settings: for Mean (PFU/g lung): BALB/c mice, tracheal nebulization 1 mg/kg QD for 5 days, lung collected 2 h after final administration on Day 4; for effect on viral titer in lung tissue (in words): mice, tracheal nebulization once daily for 5 days
Experimental: Female BALB/c mice were from Shanghai Yishang Biotechnology Co., Ltd. HEp- 2 were from the ATCC, with a catalog number CCL-23. The cells were cultured in a DMEM medium solution in which 10% (v/v) fetal bovine serum and 1% penicillin and streptomycin were added. The RSV A2 virus strain was from the ATCC, with a catalog number VR-1540.
Eight-week-old female BALB/c mice were grouped based on body weight (n=6). All animals were intranasally challenged with RSV on Day 0 at a challenge dosage of 1×10^6 pfu (20 μL) per animal. Administration began 1 h after Day 0 challenge; the polypeptide sample, positive control, and solvent control were administered via tracheal nebulization once daily for 5 consecutive days (see Table 3 below for administration dosage and administration frequency). Lung tissue was collected from all animals 2 h after the final administration on Day 4; left lung tissue was rapidly frozen in a virus protection solution with a 10-fold volume and stored below −70° C.; and a viral titer was detected by using a plaque method.
For analysis, the lung RSV A2 virus was determined by performing a tissue homogenate viral load plaque method. In short, on the day prior to sample detection, the HEp-2 cells were inoculated into a 12-well plate (spreading density being 0.3×10^6 cells/mL, with 1000 μL of cell suspension per well) according to a standard HEp-2 cell culture operation procedure. On the day of incubation, the supernatant was taken from the tissue sample that was homogenized using a tissue homogenizer (maintaining a low-temperature environment), and the supernatant was taken after centrifugation. The tissue homogenate sample was diluted with serum-free DMEM, and inoculated into a 12-well plate at a final volume of 400 μL. After 2 h of incubation, the homogenate supernatant was discarded, and 1.5 mL of a covering layer (cell culture medium containing 1% soft agar) was added to each well and cultured in the incubator for approximately 72 h. The covering layer was discarded, the cells were fixed, blocking was performed by using a blocking solution, dyeing was performed with HRP-RSVG, development and air drying were terminated with pure water. Colored spots on the well plate were counted by using a fluorescent (enzyme-linked) immunoassay spot analyzer, and the viral titer was expressed as a plaque-forming unit per gram of tissue (PFU/g). The viral titer was calculated as an arithmetic mean±standard error of all animals in a group.
as §1, with “mice,” for “cotton rats,”, “plaque” for “titer”, “3.” for “4.”

SMILES | Nucleic acid load RT-qPCR detection results Log10 mean (copy number/gram of lung tissue) (RSV A2 virus strain [1]) | effect on viral titer in lung tissue (in words) (RSV A2 virus strain [1]) | Mean (PFU/g lung) (RSV A2 virus strain [2]) | effect on viral titer in lung tissue (in words) (RSV A2 virus strain [2])
CC[C@H](C)[C@H](NC(=O)[C@H](CO)NC(=O)[C@H](C)NC(=O)[C@H](CC(=O)O)NC(=O)[C@H](Cc1ccccc1)NC(C)=O)C(=O)N[C@@H](CCC(=O)O)C(=O)N[C@@H](CCC(=O)O)C(=O)N[C@H](C(=O)N[C@@H](CC(N)=O)C(=O)N[C@@H](CCCNC(=N)N)C(=O)N[C@@H](CCCNC(=N)N)C(=O)N[C@H](C(=O)N[C@@H](CCC(=O)O)C(=O)N[C@@H](CCC(=O)O)C(=O)N[C@@H](CO)C(=O)N[C@@H](CC(C)C)C(=O)N[C@@H](CCCNC(=N)N)C(=O)N[C@@H](CCCNC(=N)N)C(=O)N[C@H](C(=O)N[C@@H](CCC(=O)O)C(=O)N[C@@H](CCC(=O)O)C(=O)N[C@@H](CO)C(=O)N[C@@H](CC(=O)O)C(=O)N[C@@H](CCCNC(=N)N)C(=O)N[C@@H](CCCNC(=N)N)C(=O)N[C@@H](CC(C)C)C(=O)N[C@@H](CCC(=O)O)C(=O)N[C@@H](C)C(=O)N[C@@H](C)C(=O)N[C@@H](C)C(=O)N[C@@H](CCCCN)C(=O)N[C@@H](CCCCNC(=O)CCC(=O)OC1CCC2(C)C(=CCC3C2CCC2(C)C(C(C)CCCC(C)C)CCC32)C1)C(N)=O)[C@@H](C)CC)[C@@H](C)CC)C(C)C (some centres unmarked) [Compound 19] (Ac-FDASIEEVNRRIEESLRRIEESDRRLEAAAKK(X1)-NH2) | 8.35 Log10 copy number/gram of lung | significantly reduce the viral titer in lung tissue | 8650 PFU/g lung | significantly reduce the viral titer in lung tissue
CC[C@H](C)[C@H](NC(=O)[C@H](CCCCN)NC(=O)[C@H](CCCCN)NC(=O)[C@H](CC(C)C)NC(=O)[C@H](CO)NC(=O)[C@H](CCC(=O)O)NC(=O)[C@H](CCC(=O)O)NC(=O)[C@@H](NC(=O)[C@H](CCCCN)NC(=O)[C@H](CCCCN)NC(=O)[C@H](CC(N)=O)NC(=O)[C@@H](NC(=O)[C@H](CCC(=O)O)NC(=O)[C@H](CCC(=O)O)NC(=O)[C@@H](NC(=O)[C@H](CCCCN)NC(=O)[C@H](CCCCN)NC(=O)[C@H](CC(=O)O)NC(=O)[C@H](Cc1ccccc1)NC(=O)[C@H](CCC(=O)O)NC(=O)[C@H](CC(=O)O)NC(C)=O)[C@@H](C)CC)C(C)C)[C@@H](C)CC)C(=O)N[C@@H](CCC(=O)O)C(=O)N[C@@H](CCC(=O)O)C(=O)N[C@@H](CO)C(=O)N[C@@H](CC(=O)O)C(=O)N[C@@H](CCCCN)C(=O)N[C@@H](CCCCN)C(=O)N[C@@H](CC(C)C)C(=O)N[C@@H](CCC(=O)O)C(=O)N[C@@H](CCC(=O)O)C(=O)N[C@H](C(=O)N[C@@H](CCC(=O)O)C(=O)N[C@@H](C)C(=O)N[C@@H](C)C(=O)N[C@@H](C)C(=O)N[C@@H](CCCCN)C(=O)N[C@@H](CCCCNC(=O)CCC(=O)OC1CCC2(C)C(=CCC3C2CCC2(C)C(C(C)CCCC(C)C)CCC32)C1)C(N)=O)C(C)C (some centres unmarked) [Compound 21] (Ac-DEFDKKIEEVNKKIEESLKKIEESDKKLEEVEAAAKK(X1)-NH2) | 8.19 Log10 copy number/gram of lung | significantly reduce the viral titer in lung tissue | 7512 PFU/g lung | significantly reduce the viral titer in lung tissue
